The full ranking holds about 33,000 sequences; the median of “E-score (-0.5 to 0.5)” is about -0.013, and the highest 2% start at about 0.3. Some of the results follow.
Molecular target: T1, Msn1 (UniProt P22148)
T1 sequence: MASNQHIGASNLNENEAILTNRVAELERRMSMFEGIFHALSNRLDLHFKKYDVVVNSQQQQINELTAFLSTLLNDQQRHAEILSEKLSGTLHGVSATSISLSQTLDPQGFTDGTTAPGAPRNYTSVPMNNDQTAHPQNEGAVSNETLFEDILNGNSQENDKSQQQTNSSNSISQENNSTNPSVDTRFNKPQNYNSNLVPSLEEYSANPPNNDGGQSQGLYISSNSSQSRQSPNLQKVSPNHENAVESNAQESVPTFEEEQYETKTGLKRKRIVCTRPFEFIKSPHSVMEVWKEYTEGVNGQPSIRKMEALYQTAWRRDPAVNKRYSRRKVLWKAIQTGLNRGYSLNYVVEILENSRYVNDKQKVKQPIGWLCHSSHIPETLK
Experiment: PBM E-score (8-mer binding enrichment) (E-score (-0.5 to 0.5)); higher = stronger / more preferred TF binding; most listed sequences are background and not binding sites
Details: protein concentration: 200 nM; construct: GST-full length
Method in brief: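 Yeast transcription factors, full-length or as DNA-binding domains, were expressed with a GST tag using PURExpress in vitro transcription/translation. At about 100-200 nM they were applied to universal all-10-mer Agilent arrays, double-stranded by primer extension on fresh or once-stripped slides. Fluorescent anti-GST detected bound protein, and masliner normalised the scans. E-scores for ungapped eight-base words, pooled with reverse complements, came from the Universal PBM Analysis Suite.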

Sequence	PBM E-score
GATTCATA	-0.00685
CAAAGAGG	-0.187
CTAGGAGC	-0.125
CAATAGCC	-0.109
AATCGACT	-0.116
ACCTGGGA	-0.0183
CAGTTTAA	-0.0457
ATACTTAA	0.16
TAATTCGA	0.173
AATGCAAC	0.099
CTTTTGGC	0.00887
CTGACATC	0.143
ATTTCAGC	-0.0737
ACATTAGT	-0.0414
GTAAGCAA	0.0165
CCGCAGTA	-0.174
TACGAGGA	0.144
AATACTTA	-0.038
AGCTTTTC	-0.101
AGAGGTCG	-0.105
AGGTTACG	-0.112
CTTGTAAC	0.123
CTCGAGTA	0.0948
TCCTGCGA	-0.0574
ATGCTTTA	-0.00871

Sequence	PBM E-score
GGCGCGCA	-0.0699
CGGAGGTA	-0.0534
GTCATCGA	0.116
TCCGTCGA	0.119
CTCCTCAG	-0.171
TCGAAACA	0.083
CTTCCAGC	-0.241
GCCCTTAC	-0.0108
ACCACCAG	-0.212
CTATAAGA	0.0953
GCGGGCAC	-0.0424
CAGGGGCC	-0.366
ACTCGAGA	-0.0333
AATCAGTG	-0.0208
AGCAAAAC	-0.0673
AATGATGC	0.135
AGTTTGGG	0.056
AGCGGATC	-0.107
ATTGACGG	0.0517
CGGTAGAA	-0.0617
CGGATTGA	0.0534
AACGTGAC	-0.00656
CCGTTAAG	0.0385
GATCAGCC	-0.251
TGCAATAA	0.215

Sequence	PBM E-score
AAATTATG	0.195
CATGTCCC	0.459
CGCATCTA	0.211
ACCCGCTA	-0.0585
CGACACCC	-0.0338
AGAAGTAA	0.085
ATTCTGTA	0.0493
AAGTGGTC	-0.0791
CTGCCATC	-0.158
GAGGTACC	-0.141
ACATCCCG	0.213
AGACGCGA	5e-05
CTTGCGTA	-0.122
AAGTACTG	0.0493
GTGCCCGA	-0.221
ACACGCCG	0.175
AAACACAA	0.138
AGCAAGAC	0.0541
CACCGACA	0.124
AGAGTGAG	-0.121
AACGGGTA	0.0783
CGGAGGAC	0.0943
AAAAGTAG	0.027
ACTTGTCA	0.369
CGTCCAAA	0.122

Sequence	PBM E-score
AACTTGTG	0.132
AGAATCTA	-0.137
ATGGGAAG	-0.203
AAACGATA	0.0762
ATTTTAGG	0.00808
CACACCTC	-0.322
CCAATAGC	-0.0522
CTGGACAG	0.0403
ATTAATTG	0.219
ACGTTCCC	-0.191
ACAGCATC	0.0854
AATGAGGA	-0.12
ATAGCGTA	-0.0005
CTTGCAAG	0.0629
TACCCTGA	-0.107
ATATGTTA	-0.0436
CTGACGAC	0.0993
TCAAGCGA	-0.0229
CGCGACGC	0.0409
CGTACTCA	0.0682
CCGGCGCA	-0.00256
CAAGACAC	0.183
GATTACAA	0.168
GGGACAGA	0.262
ATTGGTCG	0.0591

Sequence	PBM E-score
AGCCGGTA	0.0338
CGCTGTGA	-0.0621
CCCCCCAG	-0.418
GGCTTGAC	-0.0486
ACAATGAA	0.147
ATGTGTAG	-0.124
CTCGTGTA	0.0423
GCGATCGC	0.0755
GGAGGTAA	-0.0325
AGAGCTCA	-0.106
ACCTCATA	0.00341
CCTCGCGC	-0.134
AGTGCAAT	-0.0103
ATCTAGAG	-0.106
ATCTATGA	-0.0389
AGGCCCCG	-0.261
CCTAGACA	0.0613
ATACCTGA	0.163
CTCATAAA	0.0862
CGATTTGC	-0.0666
CGGTCCTC	-0.149
CAGGTGAC	-0.109
GGTCATGA	-0.078
CGAAACTA	0.109
CTTTTGCC	0.128

Sequence	PBM E-score
GAGACCCC	-0.312
ATTTCCTG	0.206
GGACAGCA	0.164
CGAATGAA	-0.0327
ATATACTG	0.117
ATTTTTTC	0.0778
AGGCAAGC	-0.104
CATGATAC	0.203
CTGGCTGC	-0.255
CGTCCCTA	-0.0646
CGAGATTC	0.11
CCAAGTAG	-0.0246
CCTGGTCG	-0.109
AAAGTGTC	0.184
ACTATGGA	0.164
CCCGTCGA	-0.138
GATAAAAA	0.211
ACTGCTAG	0.00032
AGGGGGGG	-0.499
AGACTTTG	0.131
AATTTTGA	0.161
GATCAGTA	0.11
CCAAGGAA	-0.147
ACGCCGGA	-0.112
ACGGAATA	0.141

Sequence	PBM E-score
AAACACCC	-0.0894
CCCGTCGC	-0.27
AGAGCTTG	-0.0326
ATTCACAG	0.0379
ATGAGAGG	-0.263
AGCCCGTA	-0.249
ACGAAGAA	0.0996
GCCACTCC	-0.377
AACGTTTA	-0.0111
GTACGATA	0.0417
AAACATGT	0.17
CGTCATAA	0.122
CCAACTGA	-0.0383
GTTGCACA	-0.0867
AAATCCAC	-0.00621
CAAAATTA	0.148
CTGCTTCA	-0.206
CCCCAAGG	-0.166
ATTGTAAC	0.148
CCACGAAC	0.117
ACATGACG	0.0415
CCAGGACG	0.109
GCAGGTCC	0.0509
CACCACTA	0.0498
GTAGATAC	-0.067

Sequence	PBM E-score
CAGGACCC	-0.214
CGCAGTGA	-0.0437
TCAAAGGA	-0.037
ATGTTATG	0.116
ACCACAGT	0.0788
CGCAATGC	-0.00386
CTTAGTTC	-0.0195
ACCGTTCT	0.00836
GAATCTAC	-0.133
GAGTGCAA	0.0222
AAGACGGC	-0.159
CGAGAACC	0.124
CCCCTAGG	-0.292
GAGAGCAC	-0.121
GACAGTAC	0.0689
CCAGACTC	0.0222
TATAGTCA	0.124
GTATGGTA	-0.0163
AAGCTGAG	0.086
CTAAGAGA	-0.0121
ACTAAAAG	0.0984
GACACGCA	0.198
GCTAGATA	0.114
GCAGAAAC	0.0785
AGATCGCG	0.0682

Sequence	PBM E-score
AAGTTACG	0.0559
TACGTCTA	0.0407
GGCCGGGA	-0.0785
CAGATAGC	-0.114
AATCACAT	-0.135
AAGTACTT	0.1
AGGTCGTC	-0.0558
ACACAGCC	0.00572
GCTGCGAA	-0.0394
CGACACAA	0.00596
AGATCACT	0.185
GGTTCTTA	-0.0476
CAGTTGAG	-0.127
ACACACAT	0.275
GACTCTCA	-0.0981
GCCTCGGA	-0.0386
GTGCACCA	-0.0769
ACATAAGC	0.238
ATACTCAG	0.241
CCATGATA	-0.0239
AGAGACCT	-0.012
GATTCGGA	0.218
ACGTGTCG	0.0594
GCTAGGAC	0.267
TCCCTCAA	-0.0599

Sequence	PBM E-score
GGATATAA	0.0865
CCTACCCA	-0.139
CATTGGCC	-0.129
ATGGTCGC	-0.0326
CATCTAGA	0.0226
ACTTTTAG	0.0248
TGTTAACA	0.0928
GCGGTCCA	-0.127
GAGGTCAA	-0.0237
ATCCAACC	-0.184
GAAGAGGC	-0.265
AGCGTAGG	-0.267
CGTCCGGC	0.0711
CCGGTTCA	-0.16
AAACCGGT	-0.0293
AACATCCT	-0.223
GCTGGAGA	-0.218
GATGCCGA	0.0414
GGCGTGAC	-0.0885
ACACTTGC	-0.0547
GTATAACA	0.0025
AGACGGCT	-0.208
GCCGGGTA	-0.217
GCTGAGAC	0.0411
GATGCAAA	-0.127

Sequence	PBM E-score
CGAGCTAA	-0.0305
GCTAATGA	-0.0891
AGGCCTAT	-0.12
CCTTAGAA	0.117
GTTCACAA	0.0269
AAATGGTA	0.112
CTTGATCC	-0.163
AAAATGCC	0.186
GATAACTA	0.0365
CTAGCATA	0.00303
AACCCGTA	-0.2
AAGGAGTC	-0.142
CTGAGCGC	-0.245
ATTGACAC	-0.0107
GCTCGCCC	-0.104
AAATCTGC	0.0796
ACTGATAC	0.00933
CGGAAGGA	-0.107
ATGGTTCA	0.0508
CCGCGGTA	0.0893
CAACGAGA	0.134
GCTCTTAC	0.0935
TGCTCAAA	0.00204
GAGGGTCA	-0.106
GTACATGA	0.127

Sequence	PBM E-score
CACCACGC	-0.297
CAACGAGG	-0.0281
CATAAGCC	0.00303
CTGGCATA	-0.0198
TCTAGTCA	0.161
CGTATGCA	-0.0705
AAAAGAGT	-0.097
AGAGAGGC	-0.34
CAGCCAGA	-0.187
GAAAGCTC	-0.126
ACCGATTG	0.0992
TAGACAGA	0.177
AACATGCT	0.0212
GTAACGAA	0.0499
CAATATTG	0.233
AGATTCAA	0.213
CGGGGCCC	-0.143
AATTGTCA	0.359
CCCATACG	-0.118
ACAGTTGG	-0.0246
AAGCATAG	-0.225
GCCTAGTA	-0.087
AGAGTTAC	-0.262
CATTATAA	0.11
GATGGAAC	-0.125

Sequence	PBM E-score
AATGTTTG	-0.0182
AATGCTCT	-0.0449
CCCTCCTA	-0.156
GCAAATAC	0.0266
ATTATCGA	-0.0427
GGGGTCGA	-0.313
CATCATAC	0.0861
GACTGAGC	-0.118
ATATCGAG	-0.00432
ACGAAGCA	-0.0132
CAGCGGGG	-0.241
AAAGACGT	0.168
CATGGTAG	-0.055
GATACAAA	0.313
AAAACGGA	0.142
CATTGTAC	0.0768
CGTATCAC	-0.0963
ACAGCAAC	0.181
GTTTCCTA	0.0551
ATCCTAAG	-0.124
ACTTCAGC	-0.194
GATAGGAA	-0.147
GGATTACC	-0.223
TGTGACAA	0.377
TTCCAGAA	0.168

Sequence	PBM E-score
CTTACCCA	-0.0177
AGGATCAG	-0.12
GAGATACA	0.266
CTGCAATA	0.101
AGAACGCT	-0.229
AAGAAATT	0.216
GACCTACA	0.0573
GACACGGA	0.369
CCAATACG	-0.027
AAGCGTGG	0.148
ATTAGGGG	-0.0891
CGCCCCCA	-0.369
GCCGGGGA	-0.298
GGAGCCAA	-0.0633
AACGCGGA	0.156
GCTACTAA	-0.0856
ATAGCATA	-0.0589
ACCCGAAC	0.0275
AGGGGTTG	-0.2

Source: the supplement of paper PMC3334620
